In the supplement of paper PMC7826260:
The list shows a part of the results. Viral Rep nickase domains cut single-stranded DNA in vitro (3 µM enzyme, 1 h, 37 °C); shown is the middle of each 90-letter strand. A value is the log2 ratio of uncut reads to the pool without enzyme; uncut sequences lie near 0, cut ones below; no hit call is given. Reads are scaled to the total; values above 0 arise when much of the pool is cut.

How the values were obtained:
Assay in all cases: uncleaved DNA left, log2 of reads against the no-enzyme library (log2 ratio); higher = less cleavage (more negative = more Rep cleavage of the k-mer); sequences stand for … in CTCGTCCG…ACCGGAGA
[1] = tested on: T1, Rep nickase domain of Muscovy duck circovirus
T1 sequence (Rep 1-111, printed without the tag): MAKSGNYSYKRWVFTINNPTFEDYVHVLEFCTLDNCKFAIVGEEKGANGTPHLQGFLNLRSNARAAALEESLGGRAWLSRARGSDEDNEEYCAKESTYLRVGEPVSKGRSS
Description: (§1)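 A pool of 90-nt single-stranded DNAs with seven random bases just before the constant AC of the nick site (name = the seven bases) was cut by 3 µM recombinant His6-SUMO-tagged Rep nickase domain (300 nM DNA, 50 mM HEPES pH 8.0, 50 mM NaCl, 1 mM MnCl2, 1 h, 37 °C, three replicates). Uncut DNA was amplified and sequenced.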

[2] = tested on: T2, Rep nickase domain of banana bunchy top virus
T2 sequence (Rep 1-94, printed without the tag): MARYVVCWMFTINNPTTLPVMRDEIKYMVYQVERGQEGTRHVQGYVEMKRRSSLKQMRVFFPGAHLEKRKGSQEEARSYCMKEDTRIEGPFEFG
Description: as §1

[3] = tested on: T3, Rep nickase domain of cabbage leaf curl virus
T3 sequence (Rep 1-116, printed without the tag): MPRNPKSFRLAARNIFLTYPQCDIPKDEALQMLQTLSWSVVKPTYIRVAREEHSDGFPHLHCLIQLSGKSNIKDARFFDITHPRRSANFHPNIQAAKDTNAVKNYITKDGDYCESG
Description: as §1

[4] = tested on: T4, Rep nickase domain of chickpea chlorotic dwarf virus
T4 sequence (Rep 1-124, printed without the tag): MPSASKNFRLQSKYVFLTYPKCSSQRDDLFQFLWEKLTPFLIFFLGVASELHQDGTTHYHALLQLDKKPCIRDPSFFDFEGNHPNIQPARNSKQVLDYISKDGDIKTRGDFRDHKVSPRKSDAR
Description: as §1

[5] = tested on: T5, Rep nickase domain of faba bean necrotic yellows virus
T5 sequence (Rep 1-98, printed without the tag): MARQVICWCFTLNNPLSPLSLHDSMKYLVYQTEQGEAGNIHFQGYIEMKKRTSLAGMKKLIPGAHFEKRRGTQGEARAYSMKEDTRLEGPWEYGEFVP
Description: as §1

[6] = tested on: T6, Rep nickase domain of maize striate mosaic virus
T6 sequence (Rep 1-117, printed without the tag): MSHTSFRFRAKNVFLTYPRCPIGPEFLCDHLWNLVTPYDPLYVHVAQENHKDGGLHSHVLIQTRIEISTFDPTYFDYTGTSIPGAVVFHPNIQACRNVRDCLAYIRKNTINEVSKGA
Description: as §1

[7] = tested on: T7, Rep nickase domain of porcine circovirus 2
T7 sequence (Rep 2-116, printed without the tag): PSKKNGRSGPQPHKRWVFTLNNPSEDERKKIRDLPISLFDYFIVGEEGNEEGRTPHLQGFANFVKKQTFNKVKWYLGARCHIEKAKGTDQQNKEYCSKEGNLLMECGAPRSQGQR
Description: as §1

[8] = tested on: T8, Rep nickase domain of tomato golden mosaic virus
T8 sequence (Rep 1-124, printed without the tag): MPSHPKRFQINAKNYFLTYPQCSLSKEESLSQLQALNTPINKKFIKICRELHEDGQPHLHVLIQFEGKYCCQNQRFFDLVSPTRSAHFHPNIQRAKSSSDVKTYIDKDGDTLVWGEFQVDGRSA
Description: as §1

[9] = tested on: T9, Rep nickase domain of tomato yellow leaf curl virus
T9 sequence (Rep 1-136, printed without the tag): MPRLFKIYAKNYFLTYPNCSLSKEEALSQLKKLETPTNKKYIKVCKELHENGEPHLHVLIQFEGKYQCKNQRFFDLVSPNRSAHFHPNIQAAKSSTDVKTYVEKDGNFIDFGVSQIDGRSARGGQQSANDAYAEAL
Description: as §1

[10] = tested on: T10, Rep nickase domain of wheat dwarf virus
T10 sequence (Rep 1-137, printed without the tag): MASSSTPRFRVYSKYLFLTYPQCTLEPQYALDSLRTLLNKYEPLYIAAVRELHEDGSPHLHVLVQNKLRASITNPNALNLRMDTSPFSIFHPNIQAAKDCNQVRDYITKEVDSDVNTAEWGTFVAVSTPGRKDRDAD
Description: as §1

Sequence | uncleaved DNA left (log2) [1] | uncleaved DNA left (log2) [2] | uncleaved DNA left (log2) [3] | uncleaved DNA left (log2) [4] | uncleaved DNA left (log2) [5] | uncleaved DNA left (log2) [6] | uncleaved DNA left (log2) [7] | uncleaved DNA left (log2) [8] | uncleaved DNA left (log2) [9] | uncleaved DNA left (log2) [10]
ATATCAA | 0.034 | 0.169 | 0.269 | 0.454 | 0.156 | -0.11 | 0.0523 | 0.0103 | 0.094 | 0.263
GAACTAA | 0.183 | 0.266 | 0.377 | 0.503 | 0.135 | 1.23 | 0.203 | 0.119 | 0.287 | 0.207
CATTTGT | -3.08 | -3.23 | -0.732 | -1.49 | -0.0347 | -1.12 | -3.47 | -0.148 | 0.023 | -0.192
CAGGTGC | -0.0493 | 0.0249 | -0.597 | -0.471 | 0.0708 | -0.934 | -0.0375 | -0.0387 | -0.0503 | -0.0695
CCCCGCT | -0.061 | -0.0814 | -0.309 | -1.11 | -0.135 | -0.918 | -0.101 | -0.125 | -0.112 | -0.209
AGGGAGC | -0.0831 | -0.0347 | 0.261 | 1.18 | -0.00565 | 0.962 | 0.205 | 0.0819 | -0.0439 | -0.0129
TCTAATG | -0.0444 | -0.0398 | -0.326 | -0.489 | 0.091 | -0.89 | -0.0416 | 0.0552 | -0.0331 | 0.000115
AAACCCT | -0.0282 | -0.115 | -0.372 | -2.31 | -0.0108 | 0.204 | -0.518 | -0.135 | -0.0198 | 0.0147
CGACAAG | 0.0846 | 0.204 | -0.127 | 0.363 | 0.0196 | 0.21 | 0.0562 | 0.102 | 0.046 | 0.119
ATGTTTT | -2.91 | -1.33 | -0.145 | -2.22 | -0.923 | -0.412 | -3.41 | -0.133 | -0.146 | -0.199
GCAGCTC | -0.0601 | -0.162 | -0.107 | -0.0288 | -0.115 | -0.296 | -0.00482 | 0.00261 | -0.223 | -0.119
GTTACAC | -0.139 | -0.00524 | 0.194 | 0.744 | -0.108 | 1.54 | -0.0113 | -0.00447 | 0.00203 | -0.0309
CGCGAAC | 0.097 | 0.0287 | -0.154 | -0.109 | 0.0777 | -0.443 | 0.228 | -0.0268 | 0.0139 | 0.0246
ACAACGT | -0.0246 | -0.106 | -0.189 | -0.464 | -0.141 | -0.981 | 0.0829 | 0.0367 | -0.134 | -0.209
AGCAAAG | 0.0772 | 0.0648 | -0.275 | 0.124 | 0.0524 | -0.39 | 0.099 | 0.0529 | 0.0438 | 0.11
GCCGAGG | 0.0635 | -0.141 | 0.599 | 1.13 | -0.0625 | 1.38 | 0.0896 | 0.0234 | 0.00847 | -0.00912
TGTGCCC | 0.0338 | -0.0596 | 0.341 | 0.515 | 0.0532 | 0.456 | 0.0163 | -0.0126 | 0.0846 | 0.0418
TGCGGAC | 0.00618 | 0.084 | 0.622 | 1.41 | -0.0837 | 1.68 | 0.234 | 0.141 | -0.0874 | -0.018
GTCGTCA | 0.00436 | 0.0225 | 0.299 | 0.788 | -0.00323 | 1.58 | 0.0694 | -0.0494 | -0.00166 | -0.013
ATGCGTA | 0.0209 | -0.0646 | -0.687 | -0.833 | -0.0247 | -1.21 | -0.0082 | -0.0684 | 0.0381 | -0.103
TAAGCAA | -0.0575 | -0.0143 | -0.173 | -1.2 | -0.0342 | -0.607 | -0.0186 | 0.0483 | 0.0298 | -0.000133
CAAGAGT | 0.000717 | -0.152 | -0.456 | -1.13 | -0.0606 | -0.725 | -0.183 | -0.182 | -0.141 | -0.178
CGAAAGA | -0.012 | 0.0158 | -0.0262 | 0.0986 | -0.0279 | -0.58 | -0.0489 | -0.0488 | -0.0261 | -0.0648
ACTGGTA | -0.0423 | -0.0554 | -0.102 | 0.294 | -0.0972 | 0.679 | 0.046 | 0.0056 | 0.0542 | 0.00548
CATACAG | 0.0906 | 0.0354 | -0.982 | -0.953 | 0.0335 | -1.08 | 0.175 | -0.0198 | 0.0684 | -0.144
ACATGAG | -0.0411 | 0.0805 | -0.254 | 1.07 | 0.122 | 0.266 | 0.253 | 0.0659 | 0.319 | 0.0664
CGTTGAT | -0.0854 | -0.00112 | -0.0322 | 0.0754 | 0.0866 | -0.0614 | -1.14 | 0.0603 | 0.0453 | -0.00242
ATCGACC | 0.114 | 0.139 | 0.0481 | 0.537 | 0.126 | -0.198 | 0.231 | 0.0909 | 0.15 | 0.129
TGGGAGG | -0.0181 | -0.0591 | 0.498 | 1.24 | 0.083 | 1.59 | 0.148 | 0.1 | -0.0959 | 0.0499
GATGTAT | 0.0692 | -0.0426 | 0.252 | 0.638 | 0.0529 | 1.32 | 0.0402 | 0.0467 | -0.00513 | 0.128
